The structures appear in SMILES notation. The list shows a part of the results.

This assay has as its system T1, C. trachomatis L2/434/Bu expressing GFP (CTL2-GFP).
T1 construct: L2/434/Bu GFP intracellular growth in HeLa cells
More on the design: species or system HeLa; C. trachomatis total inclusion area by high-content imaging, normalised to DMSO. As to conditions: total inclusion area; 28.5 h, 10 µM; inhibitor. The method in brief: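 High-content images of fixed, Hoechst-stained infected cultures supply inclusion area and count (growth) plus nuclei number (viability), complementing bulk GFP/resorufin fluorescence. MIC determination is unchanged from the primary assay.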
In the case of `CC(Cc1c[nH]c2ccccc12)NC(=N)NC(=N)N` (stereo not shown) [CBK268251C], the “% of control remaining” value was found to be 69.1949.

With `COc1ccccc1NC(=O)Cn1c(=O)oc2cc(Cl)ccc21` [CBK269344], the “% of control remaining” value was 98.5761. As to `COc1ccccc1CC(=O)Nc1ccc(-c2nnc(-c3ccc(C)cc3)o2)cc1` [CBK268329], the “% of control remaining” value was 55.2934. For `CN1CCOC(CNCc2ccc(OCC(N)=O)cc2)C1` (stereo not shown) [CBK304830], the “% of control remaining” value worked out at 57.1463. Regarding `Cc1ccc(CNC(=O)Cc2ccc(-c3ccc(CN4CCC(C)CC4)cc3)nc2)cc1F` [CBK158402], the “% of control remaining” value is recorded as 77.5116. `CC(C)(C)c1ccc(O)c(NC(=S)NC(=O)c2cccc(OCc3ccccc3)c2)c1` [CBK269018]: the “% of control remaining” value is recorded as 82.3243. As to `COc1ccc(Nc2nc(N)nc(CSC(=S)N3CCN(C)CC3)n2)cc1` [CBK265232], the “% of control remaining” value was found to be 88.5009. The value for `COCC1CN(C(=O)Nc2nnc(Cc3ccc(C)cc3)s2)CCO1` (stereo not shown) [CBK306278] was 52.9461. For `O=C(c1ccccc1)N1CCc2[nH]nc(-c3ccccc3)c2C1` [CBK287904], the “% of control remaining” value amounted to 97.8831. Regarding `Nc1ncc(-c2ccc(C(=O)N3CCOCC3)cc2)nc1C(=O)NCc1ccc(O)cc1` [CBK149161], the “% of control remaining” value was 104.097. For the molecule `CN(Cc1nc(-c2cccnc2)no1)S(=O)(=O)c1ccc2ccccc2c1` [CBK267385], the “% of control remaining” value was found to be 84.8035. The value for `Nc1ncc(-c2cccc(-c3ccccc3)c2)nc1NCc1cccnc1` [CBK063491] was 156.584; that for `C[C@H]1CN2CCCC2CN1Cc1cccc(F)c1F` (stereo partly shown) [CBK285454] was 61.3462; that for `CCOc1cc(C2CC(=O)NC(SCC(=O)Nc3cccc(C(F)(F)F)c3)=C2C#N)ccc1O` (stereo not shown) [CBK265778] was 64.3076.

Consider `C/C(N)=C(/C#N)C(NC(=O)C1CCCCC1)(C(F)(F)F)C(F)(F)F` [CBK267902], for which the “% of control remaining” value turned out to be 95.0828. With `O=C1N[C@H]2CCCN(C(=O)c3cc(=O)[nH]c(=O)[nH]3)[C@H]2C/C=C/CCOc2ccccc21` [CBK292065], the “% of control remaining” value is 79.6292. The value for `Nc1ccc2ccc(-c3ccsc3)nc2n1` [CBK067624] was 93.0736; that for `Cc1csc(C(C)NC(=O)c2cccnc2NCc2ccc3c(c2)OCO3)n1` (stereo not shown) [CBK153425] was 79.2496.

On to `O=C(c1coc(COc2cccc(F)c2)n1)N1CC(n2cccn2)C1` [CBK306842], for which the “% of control remaining” value was determined as 59.6412. As to `Cc1nn(CCNC(=O)C(c2ccc(F)cc2)N(C)C)c(C)c1C` (stereo not shown) [CBK282009], the “% of control remaining” value is 77.1455.

Regarding `Nn1c(CSc2ccccn2)nnc1CSc1ccccn1` [CBK266987], the “% of control remaining” value worked out at 113.108. As for `Cc1c(C(=O)C2=C(O)C(=O)N(Cc3cccnc3)C2c2ccc(F)cc2)cnn1-c1ccccc1` (stereo not shown) [CBK266541], the “% of control remaining” value is 97.7641.

In the case of `Cc1cccc2c(C(=O)NCc3ccc(S(N)(=O)=O)cc3)cc(-c3ccccc3Cl)nc12` [CBK267743], the “% of control remaining” value came out at 90.1669. The value for `O=C(O)c1ccc(S(=O)(=O)c2ccc(Oc3ccc4c(c3)C(=O)N(c3cccc(C(=O)O)c3)C4=O)cc2)cc1` [CBK263608] was 111.442. Take `COc1cncc(-c2ccc(N3CCN(CCN(C)C)CC3)nc2)c1` [CBK037720]: the “% of control remaining” value came out at 138.734. Regarding `COc1ccccc1OCC(=O)N1CCC2(CCNC2)C1` (stereo not shown) [CBK156703C], the “% of control remaining” value stood at 78.2725. Then `O=C(Nc1ccc2c(c1)nc1n2CCOC1)C1CCCCC1` [CBK307570], with 75.7484. Take `Cc1ccc(/C=N/NC(=O)CN(c2ccccc2)S(=O)(=O)c2ccccc2)c(C)c1C` [CBK262098]: the “% of control remaining” value is given as 111.774. On to `CN(C)c1ccc(CCNC(=O)c2c3c(nn2C)CCCC3)cc1` [CBK281824], for which the “% of control remaining” value came to 84.5527. Take `COCCC(=O)N1CCC(F)CC1` [CBK200399]: the “% of control remaining” value is 45.2414. For `CNC(=O)C1(Cc2ccc(-c3cccs3)cc2)CCN(C(=O)C2CCCCC2)CC1` [CBK285793], the “% of control remaining” value is given as 104.541.

Turning to `O=C(NCCC1=CCCCC1)c1cnc2n(c1=O)CCS2` [CBK287373], the “% of control remaining” value is 96.8724.

With `CCNC(=O)Nc1ncc(-c2ccc(C(C)(C)C)cc2)c2cccnc12` [CBK070632], the “% of control remaining” value turned out to be 101.632.

On to `O=C(c1cc(C2CC2)on1)N1CCn2cc(C(F)(F)F)nc2C1` [CBK282425], for which the “% of control remaining” value is recorded as 117.792. Then `CCN1CC(C(=O)NCc2ccc(CN3CCCCC3)cc2)CC1=O` (stereo not shown) [CBK281400], with 98.3863. As to `COc1ccc(-c2nc(NC(=O)c3cnccn3)cnc2-c2ccc(F)cc2)cc1` [CBK037150], the “% of control remaining” value is 93.4346. With `Cc1cc(N2CCOCC2)nc2ccc(NC(=O)c3ccncc3)cc12` [CBK288587], the “% of control remaining” value is 87.2476.

As to `O=C(CN1C(=O)N2CCN=C2c2ccccc21)N1CCCCC1` [CBK283865], the “% of control remaining” value is 93.774. On to `O=C(Nc1ccccn1)c1c(O)n(Cc2ccccc2)c2ccccc2c1=O` [CBK291213], for which the “% of control remaining” value is given as 90.041. `COC(=O)c1ccc(-c2cnc(OCC3CCN(C(=O)OC(C)(C)C)CC3)nc2)nc1` [CBK170130]: the “% of control remaining” value was determined as 59.3074. The value for `Cc1cc(C(=O)CSc2nnc(C(C)C)n2Cc2ccco2)c(C)n1C` [CBK295178] was 118.628. Turning to `C=CCNC(=O)C1CCN(c2nc3ccccc3n2C)CC1` [CBK283955], the “% of control remaining” value is given as 93.087. Regarding `CC1(C)Cc2ccccc2C(NCC(=O)O)=N1` [CBK262562], the “% of control remaining” value was 94.8824. Then `COc1cccc(-c2cccc(NS(=O)(=O)c3ccc4c(c3)CCC(=O)N4)c2)c1` [CBK286372], with 85.443; and `CN(C)c1ccc(C(=O)N2C3CCC2CC(O)(c2ccco2)C3)cc1` (stereo not shown) [CBK284117], with 0.

Take `CCn1nc(C)c(C(C)NC(=O)C(C)n2cc(Cl)cn2)c1C` (stereo not shown) [CBK281550]: the “% of control remaining” value came out at 105.787. Take `Cc1ccc(C(=O)O/C(=C/c2nc3ccccc3n2Cc2cccc3ccccc23)c2ccc(C)cc2)cc1` [CBK262485]: the “% of control remaining” value stood at 100.192. Consider `O=C(Cn1c(-c2cccs2)cc2cccnc21)NCc1ccncc1` [CBK282456], for which the “% of control remaining” value worked out at 129.402. Take `Cc1cc(=O)oc2ccc(OCC(=O)Nc3ccc(S(=O)(=O)O)cc3)cc12` [CBK263185N]: the “% of control remaining” value is 93.6828. The value for `COC(=O)c1c(NC(=S)NC(=O)c2c(Br)c(C)nn2C)sc2c1CCCCCC2` [CBK267486] was 105.975; that for `O=C(Cc1ccccc1F)NCCn1nc(-c2ccco2)ccc1=O` [CBK283705] was 102.498. The value for `Cc1cc(Cl)ccc1NC(=O)COCC(=O)O` [CBK057723] was 88.1123. As to `O=S(=O)(Nc1ccc(N2CCNCC2)c2ccccc12)c1ccc(Cl)s1` [CBK003146C], the “% of control remaining” value was 50.6799. For `Cc1cnc2c(c1)cc(C1CCOCC1)n2CC(=O)N(C)C` [CBK284754], the “% of control remaining” value was found to be 72.2211. On to `Cc1ccc(N2CCN(CC(O)COc3ccc(C(=O)c4ccc(Cl)cc4)cc3)CC2)c(C)c1` (stereo not shown) [CBK266117], for which the “% of control remaining” value stood at 123.891. With `CCCc1ccc(S(=O)(=O)Nc2cccc(C(=O)N3CCN(C)CC3)c2)cc1` [CBK039034], the “% of control remaining” value is recorded as 13.4377.

Take `CC(N)C1CCCCN1S(=O)(=O)c1ccc(OCc2ncnn2C)cc1` (stereo not shown) [CBK304272C]: the “% of control remaining” value came out at 49.2861. The value for `Cc1cc(C)nc(N/C(=N/C(=O)CCN2C(=O)c3ccccc3C2=O)Nc2cccc(Cl)c2)n1` [CBK266507] was 139.31. The value for `Cc1ccc(Cc2c(C)[nH]c3[nH]n(-c4ccccc4)c(=O)c3c2=O)cc1` [CBK270273] was 77.129; that for `CSc1ccc(CNC(=O)c2sc3nc(C)nc(N4CCCC4)c3c2C)cc1` [CBK294432] was 127.903.

`O=C(Nc1ccc2[nH]ccc2c1)c1ccc(Cl)cc1` [CBK159668]: the “% of control remaining” value was 83.2062.

With `COCCN(CCOC)c1ncc(C#N)cc1Cl` [CBK306227], the “% of control remaining” value is 33.6208. For `CN1CCN(C(=O)c2ccc(NS(=O)(=O)c3cc(Cl)sc3Cl)cc2)CC1` [CBK034549], the “% of control remaining” value was 114.154. As to `Cc1ccc2c(N)c(C(=O)c3ccc4c(c3)OCCO4)sc2n1` [CBK270265], the “% of control remaining” value is given as 77.5166. Regarding `CCn1cncc1CN(Cc1ccc(F)cc1)CC1CCCO1` (stereo not shown) [CBK283036], the “% of control remaining” value is on record as 101.105.

With `O=S(=O)(NC1CCCCC1)c1ccc(S(=O)(=O)N2CCOCC2)cc1` [CBK269618], the “% of control remaining” value was 88.6889. As for `CCn1c(SCC(=O)Nc2ccc(Br)cc2F)nnc1-c1ccc(OC)cc1` [CBK266172], the “% of control remaining” value is on record as 133.754. As to `CC(Cc1c[nH]c2ccccc12)NC(=O)CSS(=O)(=O)O` (stereo not shown) [CBK260942N], the “% of control remaining” value is 96.5042. As for `Cc1nnc(CSc2nnc(-c3ccc(Cl)cc3)[nH]2)o1` [CBK270241], the “% of control remaining” value amounted to 91.735. Regarding `CC[C@H]1CCCCN1C(=O)c1sc2ncccc2c1Cl` [CBK092276], the “% of control remaining” value was determined as 3.627. Regarding `O=C(O)c1ccc(N2C(=O)/C(=C/c3c[nH]c4ccccc34)SC2=S)cc1` [CBK263085], the “% of control remaining” value was determined as 114.932. With `O=C(Cn1cccn1)N1CCc2[nH]c3ccccc3c2C1` [CBK281839], the “% of control remaining” value worked out at 116.59. On to `O=C(O)C1(Oc2ccc3ccccc3c2)CCN(C2CCNCC2)CC1` [CBK306615], for which the “% of control remaining” value amounted to 86.6551. Regarding `COc1ccc(-n2ncc(-c3cccnc3)n2)cn1` [CBK112827], the “% of control remaining” value came out at 74.3886.

Take `C[C@H](Nc1ccc(C(F)(F)F)cc1[N+](=O)[O-])C(=O)NCCOc1ccccc1F` [CBK297535]: the “% of control remaining” value turned out to be 59.8993. Consider `C=CCn1c(NCc2ccco2)nc2ccccc21` [CBK269751], for which the “% of control remaining” value amounted to 101.22. In the case of `CC(NC(=O)Cc1ccc(-c2ccccc2)cc1)c1cccnc1` (stereo not shown) [CBK295147], the “% of control remaining” value was 102.635. Consider `CCC1CN(CC(=O)NCc2ccc(OCC(N)=O)cc2)CCO1` (stereo not shown) [CBK305774], for which the “% of control remaining” value is listed as 51.2145. Then `CCOC(=O)c1ccoc1C[N+](C)(CC)CC` [CBK007022I], with 64.9656.

The values above are taken from article PMC12040169 (PLOS Biology, 2025).
